# This is one part of the list. The full chains were built here from the parent and the listed change. Inactive controls read about 0.05.
# B1: TEV protease; numbered along this chain (parent)
# chain: MGESLFKGPRDYNPISSSICHLTNESDGHTTSLYGIGFGPFIITNKHLFRRNNGTLVVQSLHGVFKVKDTTTLQQHLVDGRDMIIIRMPKDFPPFPQKLKFREPQREERICLVTTNFQTKSMSSMVSDTSCTFPSGDGIFWKHWIQTKDGQCGSPLVSTRDGFIVGIHSASNFTNTNNYFTSVPKNFMELLTNQEAQQWVSGWRLNADSVLWGGHKVFMVKPEEPFQPVKEATQL
# Variants of: B1
# Experiment: raw area under fraction-flipped curve 0-4 h after induction (AUC4h, not background-subtracted), DNA-recorder readout of cleavage of the substrate (dimensionless); higher = more cleavage of the substrate by the protease variant
# Conditions: temperature: 34 °C; time window: 0-4 h after rhamnose induction
# 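Note: Bxb1 expression induced with 0.2% (w/v) L-rhamnose at OD600 near 0.5, cultures sampled hourly, flipped fraction per protease–substrate barcode pair counted by paired-end Illumina sequencing.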
Variant,area with substrate ENLYFQE,area with substrate ENLYFQG,area with substrate ENLYFQI,area with substrate ENLYFQR,area with substrate ENLYFQS,area with substrate ENLYFQW,area with substrate ENLYFQY,area with substrate ENLYFQH,area with substrate ENLYFQL,area with substrate ENLYFQM
F117D,0.0812,0.168,0.0617,0.0624,0.0908,0.0587,0.0808,–,–,–
T159A,0.0571,0.0875,–,–,0.0896,0.0862,–,0.0545,0.0619,0.108
N175W,0.0554,–,0.045,–,0.0764,–,–,–,–,–
L5Y,–,0.0921,0.0512,0.0595,0.118,–,–,–,0.0779,0.107
F6K,–,–,–,–,0.0928,–,0.0897,–,0.0645,0.0745
P9H,–,0.112,–,0.0571,0.115,–,0.0954,–,–,0.0994
Y34K,–,0.0886,–,–,0.0911,0.0465,–,–,0.059,–
Y34N,–,0.0769,–,0.0612,0.0919,–,0.0669,–,–,0.0771
E107F,–,–,–,0.0577,0.0911,0.0856,–,–,–,–
T129E,–,–,–,0.0507,0.0951,–,0.0557,–,–,0.0997
S154Q,–,0.0779,–,0.0453,0.088,0.0715,0.0562,–,0.0707,–
F173R,–,–,0.0522,–,0.0919,0.0634,–,–,0.0627,–
E189S,–,–,0.0594,0.0601,0.0924,–,–,–,0.0588,0.0927
V210T,–,0.102,–,0.0564,0.0938,–,–,–,0.0714,0.0482
V58Q,–,0.0495,0.0511,0.0622,0.0587,–,0.0299,–,–,–
G80F,–,0.0606,–,–,0.102,–,–,0.101,–,0.0843
R87G,–,0.0749,–,–,0.0875,–,–,0.0683,0.0591,–
P93Y,–,0.0711,0.0609,–,0.0948,–,–,–,0.0837,–
T132H,–,0.0682,–,0.0647,0.0773,–,0.0562,–,–,0.0797
Q151A,–,0.0968,0.0363,0.06,0.0977,0.0684,–,–,–,–
G153W,–,0.0688,–,–,0.0527,0.0543,–,–,–,0.0511
A170M,–,0.0679,–,0.064,0.0626,–,–,0.063,0.0342,–
Y179W,–,0.074,–,–,0.0617,–,–,–,0.0404,0.0657
A196R,–,0.123,–,–,0.0919,–,–,–,–,–

# Same assay, conditions: temperature: 34 °C; time window: 0-4 h after rhamnose induction
Variant,area with substrate ENLYFQT,area with substrate ENLYFQK,area with substrate ENLYFQP,area with substrate ENLYFQF,area with substrate ENLYFQN,area with substrate ENLYFQV,area with substrate ENLYFQQ
T159A,0.0616,–,–,–,–,–,–
N175W,0.0584,0.0509,0.0674,–,–,–,–
L5Y,0.0768,0.0517,0.0426,0.0888,0.125,0.0637,–
F6K,0.0539,0.0516,–,0.0628,–,0.0825,–
P9H,0.061,0.0639,0.0552,0.0882,–,–,–
Y34K,–,–,–,0.0728,–,–,–
Y34N,–,–,–,0.0919,0.0783,–,–
E107F,–,0.0735,–,0.081,–,–,–
T129E,–,0.0711,–,0.0587,0.07,–,–
S154Q,–,–,–,0.0686,–,0.0504,–
F173R,0.0737,0.0631,0.068,0.042,–,–,0.0668
E189S,0.0579,–,–,0.069,0.0934,–,–
V210T,0.0742,0.0629,0.0575,0.0553,0.0653,0.0565,–
V58Q,–,–,–,–,0.0619,–,–
G80F,0.0683,0.0701,–,–,0.0987,–,–
P93Y,0.0612,–,0.0741,–,–,0.0588,–
T132H,0.0481,0.102,–,–,–,–,–
Q151A,0.0562,–,–,–,0.0642,0.0602,0.0624
G153W,–,0.0031,–,–,0.0519,–,–
A170M,–,0.0644,–,–,–,–,0.0624
Y179W,0.0606,–,–,–,0.055,–,–
